# Assay results: the RNAGym collection of RNA variant scans (doi:10.1093/nar/gkz1192)
# The source gives no read counts; variants with many changes may rest on few reads.
# B1: CPEB3 Ribozyme (parent)
# chain: UAACAGGGGGCCACAGCAGAAGCGUUCACGUCGCAGCCCCUGUCAGAUUCUGGUGAAUCUGCGAAUUCUGCUGUAUAUCUC
# Variants of: B1
# Test: self-cleavage, relative activity (ratio to wild type); higher = more cleavage; in vitro, sequencing
# Method in brief: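 Libraries of CPEB3 self-cleaving ribozyme mutants came from rounds of error-prone PCR and carried barcodes, which DNA sequencing matched to variants. In vitro transcription used T7 RNA polymerase at 37°C for 5 hours, with a further 15 min in DNase I before EDTA stopped the reaction; the ribozymes cleaved during both steps. The RNA was reverse transcribed with template switching and sequenced on Illumina. Relative activity is the cleaved/total read fraction of a variant divided by that of the unmutated ribozyme, averaged over three batches with at least 5 reads.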
row,Variant,self-cleavage
1,C11G U69A A75U,0.26
2,C11U G24A U43C C50U A65G U78C,0.07
3,C11U U48A U69C,0.2
4,C11U A21U C23U C40A U76C U78C,0.05
5,C11U A15G U49C G55U A64U,0.09
6,C12A A15U U43C U72C,0.87
7,C12A A18C A35G U66C,0.13
8,C11U G16U A20U C32U A35U,0.21
9,C12A A15G U69A,0.4
10,C11U U41A U48C A65G,0.12
11,C12A U25C U51A,0.56
12,C11U G42A U51A U60G,0.09
13,C12A U41C U54G,0.91
14,C11U A15U U31A A35U U43C A64G A75C,0.03
15,C11U U31C A45U G46U,0.17
16,C12A A18G A28U A45U U58G,0.23
17,C11U A18U G53A A75U,0.11
18,C11G U41C U49C U51A,0.17
19,C11U A18G C37G U54A U60A A75G C79G,0.06
20,C12A A18G A21G,0.57
21,C11U C27G U69A A77G,0.08

row,Variant,self-cleavage
1,C11U G22U U41A U48C A65G,0.12
2,C11U U26C A35U G52U A56U A75U,0.03
3,C12A U31C U58C A64G A65U U69C U80C,0.26
4,C11U U48C A56U U69A,0.04
5,C11U A45C U54A U72A,0.08
6,C11U A57U A75G,0.07
7,C11U A13U A15G G22U G33A G55A U78C,0.17
8,C12A A21G C40U A47U U49C,0.18
9,C11U A18G C32A,0.04
10,C11U U25C C29U,0.44
11,C11U C62U U72A U80A,0.09
12,C11U A18G U25C G46U G53C A56U U60C,0.03
13,C11U G30U C37U U48C U60C U66C,0.13
14,C12A A45U A47G U80A,0.44
15,C11U U60C U69C U72C U76C A77U,0.09
16,C12A A15G C32A A35U A77G,0.34
17,C12A C34A U60C U78C,0.08
18,C11U A47U U48C U76A A77U,0.06
19,C11G U54C A64G,0.18
20,C11U A45G A57C U66C,0.06
21,C11U U26C A28G A57G A65G U72C C79U,0.02

row,Variant,self-cleavage
1,C12A U25C A35U U80A,0.38
2,C12A U26A G33A U54A U72A A77C,0.1
3,C11G U49C U80A,0.14
4,C11U A13U G36U A77G,0.3
5,C11U U49C A64G G73A,0.25
6,C11U U25C U26C A56U G63A,0.28
7,C11U U26C U51A U58A,0.05
8,C11U A18U U41A U51C A56G,0.19
9,C11U U43C A75G,0.43
10,C12A U25C U41C U76C A77G,0.12
11,C12A A15G C32A,0.31
12,C11U C12A C23A U26C G30U U66C U69C,0.07
13,C11U A21G U26A U58C U66C,0.12
14,C11U A20U A21G G55C A64G,0.13
15,C12A A28G A64G U67A,0.12
16,C12A U41A U54C C59G U74C,0.1
17,C12A A28U U41C,0.67
18,C12A C14U A15U U72C,1.11
19,C11U G24U U43C U54G U72C,0.18
20,C12A A35G U41A A47C U80C,0.11
21,C11G U49C A57U U76C U78C,0.13

row,Variant,self-cleavage
1,C11U A18G A20G A45G,0.22
2,C11U A15U A20G U49A U80A,0.27
3,C11U A21G U26C C59A A64G U76A,0.03
4,C11U C34U G63U,0.09
5,C12A A13G A18U,0.24
6,C12A A15U A35U U51A C62U U80C,0.34
7,C11U U25A A75U,0.17
8,C11U U48C U51A U54C A56G,0.09
9,C11U U49A U72C,0.3
10,C11U A15C A20G U58C,0.24
11,C11U U60C U66C,0.26
12,C12A A18G A56G,0.48
13,C11G U31C U60C U66C,0.06
14,C11U A28G U67C A75U C79G,0.11
15,C12A A35U U48G,0.77
16,C11U A56G A75G,0.11
17,C11U A18U A21G U49A A77U,0.05
18,C11U G33A C40G C44U A65G,0.11
19,C11U U26C U31C G55A A57U U67C,0.03
20,C12A U25C A28U G33A A35G A57C U72A,0.11
21,C11U A65G U69G U80C,0.1
